In article PMC4833300, “Identification of Trypanocidal Activity for Known Clinical Compounds Using a New Trypanosoma cruzi Hit-Discovery Screening Cascade” (PLoS Neglected Tropical Diseases, 2016):
Read-outs that look alike come from different tables or passages of the source.

Key:
Vero cells = test: Host cell toxicity read-out of the primary assay (Vero cell count); assay type: cell-based; details: for EC50: Chlorocebus sabaeus, Vero, read-out: pEC50 (Vero) (converted)
Experimental: (§1) The compounds tested were obtained from the NIH (Clinical Collection) and from SelleckChem (FDA-approved drug library). Compounds were dispensed into black 384-well assay plates (Corning) by acoustic dispensing (LabCyte ECHO). […] Potencies are reported as pEC50 (-LOG(EC50[M])).
(§2) For the primary intracellular assay the infection conditions were chosen so that no trypomastigote egress occurs during the compound incubation time. First, Vero cells were infected overnight with tissue culture derived T. cruzi trypomastigotes in T225 tissue culture flasks (MOI 5). Next, any remaining free trypomastigotes were washed away with serum free MEM and the infected Vero cells were harvested by trypsinisation. The infected Vero cells were then plated into 384-well plates containing the compounds to be tested, at 4000 cells per well in MEM media with 1% FCS. […] The plates were imaged on a Perkin Elmer Operetta high-content imaging system using a 20x objective. Images were analysed using the Columbus system (Perkin Elmer). The algorithm for the primary assay first identified the Vero nuclei followed by demarcation of the cytoplasm and identification of intracellular amastigotes. This algorithm reported mean number of parasites per Vero cell and total number of Vero cells. Data analysis was as described in [22]. […] Hits from the primary screen were selected based on the following criteria: T. cruzi activity (percent inhibition) > (median T. cruzi percent inhibition + 3 x robust Standard Deviation) and Vero activity (percent inhibition) < (median percent Vero inhibition + 3 x robust Standard Deviation).

[1] = tested on: intracellular T. cruzi amastigotes; test: Primary high-content intracellular T. cruzi amastigote assay; assay type: cell-based, Trypanosoma cruzi (Silvio X10/7 A1) in Vero cells; details: for EC50: Trypanosoma cruzi, read-out: pEC50 (cruzi) (converted)
Experimental: as §1, §2

intracellular T. cruzi = test: Static-cidal assay (percent infected Vero cells, 96 h); assay type: cell-based, Trypanosoma cruzi (Silvio X10/7 A1) in Vero cells; details: Trypanosoma cruzi, 0% = starting level of infection, 100% = 50μM Nifurtimox at 96h, only from concentrations not toxic to the host cells, read-out: MAX PI (SC), Maximum Percent Inhibition in the static cidal assay
Experimental: The secondary static-cidal assay uses the same protocol as the standard assay with the following changes: infection is done at MOI 10, and infected Vero cells are incubated 88h at 37°C in presence of 5% CO2 prior to trypsinisation and plating. Four hours after plating a control plate (no compounds) was fixed with formaldehyde as described above. Compound containing plates were fixed after incubation for 96 hours. Compounds are run as ten point dose response curves in triplicate. The algorithm for the secondary assay was similar to the primary assay but reported percent infected Vero cells instead of the mean number of parasites.
To assess screening hits for their ability to be cytocidal rather than cytostatic or growth slowing we developed a medium throughput (400 compounds / batch) assay to predict cidality of compounds against intracellular T. cruzi. […] Instead we developed an algorithm that assesses whether a Vero cell is infected or not, and we used the percentage of infected cells as primary measurement for the static-cidal assay. In order to readily identify cidal compounds we normalised the raw data using the starting level of infection as 0% effect and the final level of infection in presence of 50μM Nifurtimox as 100% effect control.

[2] = hits of the bio-actives screen, 10-point dose-response, top concentration 50μM, 72h

O=C1CCc2ccc(OCCCCN3CCN(c4cccc(Cl)c4Cl)CC3)cc2N1 [Aripiprazole]
EC50 (Vero cells; [2]): 12.6 µM | EC50 [1, 2]: 2.51 µM

CN1CCC[C@@H]1CCO[C@](C)(c1ccccc1)c1ccc(Cl)cc1 [Clemastine]
Emax (intracellular T. cruzi): 108% | EC50 (Vero cells; [2]): 25.1 µM | EC50 [1, 2]: 0.1 µM

CN(C)CCCN1c2ccccc2CCc2ccc(Cl)cc21 [Clomipramine]
EC50 (Vero cells; [2]): 15.8 µM | EC50 [1, 2]: 6.31 µM

Clc1ccccc1C(c1ccccc1)(c1ccccc1)n1ccnc1 [Clotrimazole]
EC50 (Vero cells; [2]): 12.6 µM | EC50 [1, 2]: 0.00631 µM

Clc1ccc2c(c1)CCc1cccnc1C2=C1CCNCC1 [Desloratadine]
EC50 (Vero cells; 72 h): 15.8 µM | EC50 ([1]; 72 h): 6.31 µM

Clc1ccc(COC(Cn2ccnc2)c2ccc(Cl)cc2Cl)cc1 (stereo not shown) [Econazole]
EC50 (Vero cells; [2]): 10 µM | EC50 [1, 2]: 0.02 µM

CNCCC(Oc1ccc(C(F)(F)F)cc1)c1ccccc1 (stereo not shown) [Fluoxetine]
EC50 (Vero cells; [2]): 20 µM | EC50 [1, 2]: 6.31 µM

OCCN1CCN(CCCN2c3ccccc3Sc3ccc(C(F)(F)F)cc32)CC1 [Fluphenazine]
EC50 [1, 2]: 3.16 µM

CN(C)C(=O)C(CCN1CCC(O)(c2ccc(Cl)cc2)CC1)(c1ccccc1)c1ccccc1 [Loperamide]
EC50 ([1]; 72 h): 3.98 µM

CNCCCC12CCC(c3ccccc31)c1ccccc12 [Maprotilline]
pEC50 (Vero) (Vero cells; [2]): 4.8 | pEC50 (cruzi) [1, 2]: 5.3

Clc1ccc(COC(Cn2ccnc2)c2ccc(Cl)cc2Cl)c(Cl)c1 (stereo not shown) [Miconazole]
EC50 (Vero cells; [2]): 7.94 µM | EC50 [1, 2]: 0.0316 µM

CN1CCN(CCCN2c3ccccc3Sc3ccc(Cl)cc32)CC1 [Prochlorperazine]
EC50 (Vero cells; [2]): 6.31 µM | EC50 [1, 2]: 2.51 µM

CSc1ccc2c(c1)N(CCC1CCCCN1C)c1ccccc1S2 (stereo not shown) [Thioridazine]
EC50 (Vero cells; [2]): 6.31 µM | EC50 [1, 2]: 2.51 µM
